Test results published in PMC4336329 (PLoS ONE, 2015).
In all, about 310,000 compounds went through this assay and about 2,200 (0.71%) showed an effect of 50% or more. The effect is printed as a negative number. This is one part of the list.

What follows are compounds tested against human ether-à-go-go-related gene (hERG) potassium channel (human, UniProt Q12809) (assay: primary screen, population patch clamp on CHO cells stably expressing hERG).
Chain of human ether-à-go-go-related gene (hERG) potassium channel (Q12809 whole entry, looked up): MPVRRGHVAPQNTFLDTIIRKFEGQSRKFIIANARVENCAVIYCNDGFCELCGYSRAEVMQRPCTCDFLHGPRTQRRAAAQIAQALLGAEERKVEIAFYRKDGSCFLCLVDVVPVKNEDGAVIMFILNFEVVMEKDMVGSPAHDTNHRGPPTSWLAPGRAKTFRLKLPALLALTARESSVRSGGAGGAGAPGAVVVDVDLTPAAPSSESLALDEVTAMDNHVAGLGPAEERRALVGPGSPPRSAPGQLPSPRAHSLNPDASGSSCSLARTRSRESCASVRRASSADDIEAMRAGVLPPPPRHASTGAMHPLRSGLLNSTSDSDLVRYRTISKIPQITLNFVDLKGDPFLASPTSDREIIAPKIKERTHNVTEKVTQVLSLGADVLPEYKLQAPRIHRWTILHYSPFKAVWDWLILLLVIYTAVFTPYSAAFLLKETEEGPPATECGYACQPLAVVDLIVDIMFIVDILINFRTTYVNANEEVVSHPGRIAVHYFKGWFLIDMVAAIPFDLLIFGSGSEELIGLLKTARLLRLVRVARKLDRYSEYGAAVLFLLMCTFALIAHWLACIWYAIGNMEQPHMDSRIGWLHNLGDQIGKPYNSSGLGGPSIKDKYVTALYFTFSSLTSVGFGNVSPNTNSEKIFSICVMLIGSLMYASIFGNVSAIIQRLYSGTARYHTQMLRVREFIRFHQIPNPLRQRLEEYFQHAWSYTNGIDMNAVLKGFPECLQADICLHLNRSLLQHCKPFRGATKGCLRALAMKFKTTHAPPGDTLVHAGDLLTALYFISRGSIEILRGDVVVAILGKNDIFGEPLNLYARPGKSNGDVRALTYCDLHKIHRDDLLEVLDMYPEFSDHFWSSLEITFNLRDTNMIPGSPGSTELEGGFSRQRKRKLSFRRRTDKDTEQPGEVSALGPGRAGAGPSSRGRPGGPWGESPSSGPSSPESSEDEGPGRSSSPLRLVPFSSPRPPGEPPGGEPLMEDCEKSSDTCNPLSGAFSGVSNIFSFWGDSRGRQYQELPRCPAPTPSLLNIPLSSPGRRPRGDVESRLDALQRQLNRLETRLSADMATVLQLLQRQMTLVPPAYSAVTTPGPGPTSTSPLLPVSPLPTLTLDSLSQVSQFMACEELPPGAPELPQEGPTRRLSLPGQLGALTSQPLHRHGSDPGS

| SMILES | hERG current change (%, negative = inhibition) at 1uM [%] |
| --- | --- |
| CCC(=O)Nc1ccc(N2CCN(CC)CC2)c(Cl)c1 | 8.56 |
| COc1ccc(-c2[nH]ncc2CNC(C)c2cn(C)nc2C)c(F)c1 (stereo not drawn) | 10.2 |
| COc1ccc(C(c2nnnn2Cc2cccs2)N2CCN(c3ccccc3F)CC2)cc1OC.Cl (stereo not drawn) | -3.85 |
| COc1ccccc1N1CCN(c2ccnc3cc(Cl)ccc23)CC1 | 7.78 |
| COc1ccc(C2SCCN2S(=O)(=O)c2ccc(NC(C)=O)cc2)cc1OC (stereo not drawn) | 5.42 |
| COc1ccc(CC(=O)NNC(=O)c2ccc(NC(C)=O)cc2)cc1 | 15.4 |
| O=C(c1nnc(-c2ccccc2)o1)C1CC1 | 13.4 |
| O=C(Nc1c(-c2ccccc2)nc2sccn12)c1ccccc1 | 10.4 |
| CCOC(=O)Cc1csc(NC(=O)c2ccc(NC(C)=O)cc2)n1 | 10.4 |
| O=C1CN(C(=O)c2cc([N+](=O)[O-])ccc2Cl)C(c2ccc(F)cc2)c2cc(F)ccc2N1 (stereo not drawn) | -4.16 |
| Cc1cc(C)c2c(N)c(C(=O)NN3CC(=O)N(c4ccccc4F)CC3=O)sc2n1 | 6.81 |
| Cc1ccc(CN2CCN(Cc3cnc(N(C)C)s3)CC2CCO)o1 (stereo not drawn) | 11.2 |
| Cc1cc(-n2c(C)cc(C(=O)COc3ccc4ccc(=O)oc4c3)c2C)no1 | 11.9 |
| CC(C)(C)c1ccc(C(=O)CSc2n[nH]c(=O)[nH]c2=O)cc1 | 11.5 |
| COCCNC(=S)Nc1cc2oc3ccccc3c2cc1OC | 11.2 |
| COc1cccc(CNC(=O)C2Cc3cc(S(=O)(=O)N4CCCC4)ccc3N2C(C)=O)c1OC (stereo not drawn) | 1.37 |
| Nc1ccc(-c2nc3c(Cl)c(N)ccc3[nH]2)cc1 | 3.01 |
| COc1ccc(S(=O)(=O)N2CCN(Cc3cccc(F)c3)CC2)cc1 | 14.2 |
| CCC(=O)N1CCc2cc(S(=O)(=O)NC(C(=O)NC(C)c3ccccc3)C(C)C)ccc21 (stereo not drawn) | 14.8 |
| CCc1ccccc1NC(=O)c1cc(C)no1 | 14.3 |
| COc1ccc(-c2nsc3c(N4CCCCC4C)ncnc23)cc1 (stereo not drawn) | 6 |
| CCCCOC(=O)Nc1sc2nc(C)cc(C)c2c1-n1cccc1 | 9.04 |
| O=C(NCCCO)C(=O)Nc1ccc2c(c1)N(S(=O)(=O)c1cccs1)CCC2 | 7.02 |

| SMILES | hERG current change (%, negative = inhibition) at 1uM [%] |
| --- | --- |
| Cn1c(=O)[nH]c(=O)c2c1nc(N(CCO)Cc1ccccc1)n2CCCc1ccccc1 | -17.3 |
| COc1ccc(Br)c(C(=O)Nc2cccc(S(=O)(=O)N3CCOCC3)c2)c1 | 8.66 |
| COc1cc(Cl)ccc1OCc1cc(C(=O)N(C)Cc2cn(C)nc2C)no1 | 3.2 |
| COc1ccc(CNC(=O)c2c(O)c3ccccc3n(C)c2=O)cc1 | 5.51 |
| N#C/C(=C\c1cc(Br)ccc1F)C(=O)NC1CC1 | -11.5 |
| O=c1c2ccccc2nc2ccccn12 | 37.6 |
| Cc1ccccc1NC(=O)Nc1ccc2c(c1)CCC2 | 14.8 |
| CC(C)n1cc(/C=C2\NC(=O)N(c3cccc(Cl)c3)C2=O)c2ccccc21 | 1.55 |
| Cc1cccc(-n2c(/C=C/c3ccc([N+](=O)[O-])o3)nc3ccccc3c2=O)c1 | 2.06 |
| CC(C)n1cnc2cc(NCc3nc4ccccc4n3C)ccc21 | 4.71 |
| CC[C@@H](C)CN1C(=O)N[C@@H](c2ccccc2)C(C(C)=O)=C1C | 6.22 |
| Cc1cccc2c1-c1sc(C(=O)Nc3ccccc3N3CCN(C)CC3)cc1CO2 | 1.32 |
| Cc1ccc([N+](=O)[O-])cc1NC(=O)CCCOc1ccccc1 | 9.58 |
| O=C(Nc1ccc(-c2ccc(N3CCCCC3)nn2)cc1)c1ccco1 | 11.9 |
| NC(=O)C1=C[C@H](c2ccc3c(c2)OCO3)C[C@H](OCc2ccc(CO)cc2)O1 | 5.97 |
| O=C(c1cnc2n(c1=O)CCS2)N1CCN(c2ccccc2F)CC1 | -5.24 |
| CCC(C)NC(=O)CN(c1ccc2c(c1)OCO2)S(=O)(=O)c1c(C)n[nH]c1C (stereo not drawn) | 7.3 |
| Cl.O=C(COc1ccc(Br)cc1)OCCN1CCCCC1 | 15.2 |
| CC(=O)c1sc(NC(=O)c2ccccc2)nc1-c1ccccc1 | 7.05 |
| Fc1ccccc1C1c2[nH]c3ccccc3c2CCN1CCCn1cccn1 (stereo not drawn) | -5.78 |
| CCOc1c2ccc(C(=O)N[C@H](C)C3CCCCC3)cc2nn1CCOC | 0.662 |
| O=C(O)CSCCCC(=O)Nc1ccc(Br)cc1 | 6.69 |
| O=[N+]([O-])c1c2ccccc2cc2ccccc12 | 8.73 |

| SMILES | hERG current change (%, negative = inhibition) at 1uM [%] |
| --- | --- |
| O=C(N/N=C/C=C\c1ccccc1)c1cnccn1 | -7.39 |
| O=c1[nH]c(-c2ccc(F)cc2)nc2c1sc(=S)n2-c1ccccc1 | -14.5 |
| CC(=O)c1ccc(N2CCN(C(=S)Nc3cccc(Cl)c3)CC2)cc1 | 4.97 |
| O=C(Nc1ccccc1N1CCOCC1)C1CCN(S(=O)(=O)c2cccc(C(F)(F)F)c2)CC1 | 7.76 |
| COc1cc(OC)c(S(=O)(=O)NCc2cccnc2)cc1NC(C)=O | 7.19 |
| COc1ccccc1N1C(=O)CC(N2CCc3ccccc32)C1=O (stereo not drawn) | 6.98 |
| O=S(=O)(c1ccccc1F)N1CCN(c2nc3ccccc3s2)CC1 | 12.5 |
| O=C(NCc1cccnc1)c1ccc(NC(=O)c2ccc(Br)cc2)cc1 | 19.6 |
| COc1ccc(NC(=O)Oc2ccccc2)cc1Cl | 13.5 |
| CCOc1ccc(S(=O)(=O)NC2CC2)cc1C(N)=O | 6.74 |
| Clc1ccc(NC2(c3nnnn3C3CCCCC3)CCCCC2)cc1 | 12.7 |
| Nc1nnc(COc2ccc(Br)cc2Br)s1 | 6.1 |
| CCOC(=O)C(CCCP(=O)(c1ccccc1)c1ccccc1)(NC(C)=O)C(=O)OCC | 12.5 |
| O=C(C(=O)N1CCOCC1)c1c[nH]c2ccccc12 | 15.1 |
| NNC(=O)Cn1nc(Cc2ccccc2)n(N)c1=O | 11.9 |
| Cc1cccc(OCC(=O)Nc2ccc(N3CCN(C(=O)c4ccco4)CC3)cc2)c1C | 1.53 |
| C=CCc1ccc(OCCCNC2CCCC2)c(OC)c1 | -8.61 |
| CCC(C)Sc1ccc([C@H]2N[C@@](C)(C(=O)OC)[C@H]3C(=O)N(C)C(=O)[C@@H]23)cc1OC.O=C(O)C(F)(F)F (stereo partly drawn) | 2.05 |
| O=C(NC1CCCCC1)c1ccc2c(c1)OCCO2 | 10.8 |
| COc1cccc(Nc2nc(C)nc3c2oc2ccccc23)c1 | 9.36 |
| Cc1occc1C(=O)Nc1cccc(C(=O)O)c1 | 5.4 |
| O/N=C(\c1ccc(Cl)cc1Cl)c1ncc(C(F)(F)F)cc1Cl | 15.7 |
| NS(=O)(=O)c1ccc(NNC(=O)c2ccccc2C(=O)O)cc1 | 17.8 |

| SMILES | hERG current change (%, negative = inhibition) at 1uM [%] |
| --- | --- |
| Cn1c(O)c(C2=NNC(c3ccc(Cl)cc3)C2)c(=O)n(C)c1=O (stereo not drawn) | 12.7 |
| COc1ccc(OC)c(NC(=O)COc2ccc(S(=O)(=O)N3CCCC3)cc2)c1 | 2.64 |
| CC(=Nc1ccccc1N)c1c(O)n(C)c(=O)[nH]c1=O | 11.8 |
| Cc1cc(C)nc(NC(=O)c2cccc(Cl)c2)n1 | 18.2 |
| CC(C)NC(=O)C1CC(=O)N(C(C)c2ccccc2)C1 (stereo not drawn) | 7.83 |
| Cc1ccc(C2C3=C(CCCC3=O)Nc3[nH]c(=S)[nH]c(=O)c32)cc1 (stereo not drawn) | 9.42 |
| CC1CCCN(C(=O)c2ccc3c(c2)OCO3)C1 (stereo not drawn) | 15.4 |
| CC(NC(=O)c1nn(C)c2c1CS(=O)(=O)c1ccccc1-2)c1ccccc1 (stereo not drawn) | 13 |
| N/C(=N/O)c1nc(N2CCCCC2)nc(N2CCCCC2)n1 | 13.8 |
| Cc1ccc(C)c(NC(=O)c2cc(S(=O)(=O)N3CCCCC3)ccc2N2CCOCC2)c1 | -12.9 |
| Cc1ccc(N2C(=O)N(Cc3ccccc3C)c3ccccc3S2(=O)=O)cc1 | 2.41 |
| CCOc1ccc(-c2nn3c(-c4ccc(F)cc4)nnc3s2)cc1 | 7.63 |
| O=C(NC1CCN(S(=O)(=O)c2ccccc2)CC1)c1cccc(F)c1 | 16.9 |
| N#CCSCC(=O)Nc1ccc(F)cc1 | 5.38 |
| Cc1cccc(C2=N/C(=C\c3cccnc3)C(=O)O2)c1 | 17.7 |
| CCCC[N+]12CCC(CC1)C(Cc1ccccc1)C2.[Br-] (stereo not drawn) | 17.1 |
| O=C(NCC(c1ccc(F)cc1)N1CCOCC1)c1ccc(C(=O)c2ccccc2)cc1 (stereo not drawn) | -1.63 |
| Cc1[nH]c2ccccc2c1C(=O)CN1CCC(C)CC1 | 5.35 |
| Cc1cc[n+](CC(=O)c2ccc(NC(=O)c3ccccc3)cc2)cc1.[Br-] | 11.8 |
| CCOC(=O)/C(C#N)=C\c1cc(C)n(-c2ccccc2)c1C | 10.5 |
| CN(C)CCCN(C(=O)c1ccc(C(=O)c2ccccc2)cc1)c1nc2cc3c(cc2s1)OCO3.Cl | 9.56 |
